Test results published in PubChem BioAssay AID493208 (National Center for Advancing Translational Sciences (NCATS), 2011).
The campaign covered roughly 44,000 compounds. About 340 (0.77%) were called active. Roughly 5% stayed inconclusive and do not appear here. The call rests on the fitted dose curve; in most records, active means well fitted inhibition curve with a large enough effect; inconclusive means small, poorly fitted or top-dose-only effect; inactive means flat fitted curve, though single readings scatter. This is one part of the list.

experiment: Acumen qHTS Assay for Inhibitors of the mTORC1 Signaling Pathway in MEF (Tsc2-/-, p53-/-) Cells: Sytravon; conditions: phospho-rpS6 immunofluorescence/PI, 24 h; series mostly up to 38.3 µM; activity change, negative = inhibition: at the top concentration;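 further: plate controls were DMSO for no effect and rapamycin for full effect; nearly all actives have a fitted effect of over 50% in size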
Summary of the method: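 Tsc2-/-, p53-/- MEFs (empty-vector stable line) in DMEM + 10% FBS were treated with compounds 24 h at 37 degree Celsius, fixed, and immunostained for phospho-rpS6 (Alexa-488) with propidium iodide counterstain. Laser-scanning cytometry gave % positive cells, normalized against 7.5 nM rapamycin and DMSO.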

Row | SMILES | activity change, negative = inhibition
1 | CCOC(=O)c1c(NC(=O)/C=C/c2ccc(OCC)cc2)sc2c1CCC2 | inactive: -2.24%
2 | CCCCn1c(=O)c2oc3ccccc3c2n(CC(=O)Nc2ccccc2OC)c1=O | inactive: -5.23%
3 | Cc1ccc(CNC(=O)Cn2cc(C(=O)c3ccc(Cl)cc3)c(=O)c3ccc(C)nc32)cc1 | inactive: -16%
4 | CCc1ccc(C2=C(C)C(N3CCC(C(=O)NCc4ccc(C)o4)CC3)=NS2(=O)=O)cc1 | inactive: 0.123%
5 | CCCCNC(=O)[C@@H](c1ccccc1)N1Cc2ccccc2C1=O | inactive: 2.52%
6 | Cc1ccc(S(=O)(=O)N2CCCc3cc(NC(=O)c4c(F)cccc4F)ccc32)cc1 | inactive: 7.97%
7 | Cc1nn(CC(=O)NCc2ccccc2Br)c(=O)c2cc3occc3n12 | inactive: 0.347%
8 | O=C(CCn1c(=O)c2cccn2c2cccnc21)N1CCN(c2ccc(Cl)cc2)CC1 | inactive: -1.22%
9 | Cc1cccc(OCCCCn2c(C3CC(=O)N(c4ccc(C)cc4C)C3)nc3ccccc32)c1 (stereo unspecified) | inactive: -0.621%
10 | Cc1ccc(Cl)cc1-n1ncc2c(N3CCC(C(N)=O)CC3)ncnc21 | inactive: -1.29%
11 | CNc1oc(/C=C/c2cc(OC)c(OC)c(OC)c2)nc1C#N | inactive: 1.78%
12 | O=C(OCC1CCCO1)c1ccc2c(c1)N(Cc1ccccc1F)C(=O)c1ccccc1S2(=O)=O (stereo unspecified) | inactive: -0.672%
13 | CCOc1ccccc1NC(=O)CSc1nccn1Cc1ccc(F)cc1 | inactive: -7.94%
14 | Cc1ccc(-n2c(=O)c3ccc(C(=O)NCc4ccccc4Cl)cc3n(CC(N)=O)c2=O)cc1 | inactive: -19.8%
15 | Cc1ccccc1C(=O)Nc1ccc(C(=O)OCc2cc(=O)n3c4c(sc3n2)CCCC4)cc1 | inactive: 8.98%
16 | Cc1cccc(CNC(=O)c2cnc3sc(N4CCOCC4)nn3c2=O)c1 | inactive: 5.57%
17 | Cc1ccc(C(=O)Nc2ccc(F)cc2)cc1S(=O)(=O)N1CCOCC1 | inactive: 2.72%
18 | COc1ccc(NC(=O)C2CCN(C(=O)c3sc4nc[nH]c(=O)c4c3C)CC2)cc1Cl | inactive: -0.708%
19 | CN(CC(=O)Nc1ccc(Br)cc1)S(=O)(=O)c1cccc2nsnc12 | inactive: -1.17%
20 | COc1ccccc1NC(=O)CSc1nc2c(oc3ccccc32)c(=O)n1-c1ccccc1F | inactive: 3.05%
21 | Cc1cc2oc(C(=O)N(Cc3ccc(N(C)C)cc3)CC3CCCO3)c(C)c2cc1Cl (stereo unspecified) | inactive: 2.72%
22 | CN1C(=O)Cc2cc(S(=O)(=O)CCC(=O)N3CCN(c4ccc(Cl)cc4)CC3)ccc21 | inactive: 5.43%
23 | COc1ccc(NC(=O)c2oc3ccccc3c2NC(=O)c2cc(C)cc(C)c2)c(OC)c1 | inactive: 1.86%
24 | CCOC(=O)C1CCN(c2nc3ccccc3nc2Cl)CC1 | inactive: -22.8%
25 | Cc1cc(C)c(NC(=O)C(=O)NCC(c2cccnc2)N2CCN(c3ccccc3F)CC2)c(C)c1 (stereo unspecified) | inactive: -5.31%
26 | CCc1cccc(NC(=O)c2cc3c(s2)-c2ccccc2OC3)c1 | inactive: -10.1%
